In assay [1] the test system is human breast cancer (MDA-MB-231) cells.
The test system of assay [2] is ER-negative MDA-MB-231 cells.
Assay [3] deals with human breast cancer (MDA-MB-231) cells. Put plainly: cells.

The structures appear in SMILES notation. Where two headings read alike, the source gives them in different places.

Results on two compounds are retold here after patent US8406870B2, “Treating cancer using electromagnetic fields in combination with other treatment regimens” (priority 2006, dated 2013).

For the compound `COc1cccc2c1C(=O)c1c(O)c3c(c(O)c1C2=O)C[C@@](O)(C(=O)CO)C[C@@H]3O[C@H]1C[C@H](N)[C@H](O)[C@H](C)O1` [Doxorubicin], the figures for the “Combination index CI50” value in assay [1] (Doxorubicin + TTFields 1.25 V/cm) and in assay [1] (Doxorubicin + TTFields 1.75 V/cm) were 0.99 and 0.98, respectively. Further, the “effect of added TTFields on cell proliferation” value in assay [1] (Doxorubicin + TTFields 1.25 and 1.75 V/cm) is “statistically significant (ANOVA, P<0.05) anti-proliferation effect”; in assay [1] (Doxorubicin all concentrations + TTFields 0.625 V/cm) it was “no significant effect on cell proliferation”. In addition, the “effect of combined treatment on cell division” value in assay [2] (0.1 μM Doxorubicin + 1.75 V/cm TTFields) was “complete halt of cell division after first 24 hours”. Moreover, in assay [2] (0.1 μM Doxorubicin alone for 24 hours, then normal conditions), the “cell number during the 48 hours after 24 hour treatment” value is “slow increase in cell number”. For the same compound, in assay [2] (0.1 μM Doxorubicin alone, 24 hours), the “reduction in cell number as compared to the control” value is reported as 26±4%. Also, the “cell division during 72 hour treatment” value in assay [2] (0.1 μM Doxorubicin alone, 72 hours) was “complete arrest of cell division at the end of the second day”. For the same compound, the IC50 is approximately 1000 nM in assay [3] (MDA-MB-231, 24 h, read-out: concentration for complete arrest of cell proliferation (50% inhibition), Doxorubicin alone, 24 h); 410 nM in assay [3] (MDA-MB-231, read-out: concentration required to reach complete arrest of cell proliferation (50% inhibition), Doxorubicin + TTFields 1.25 V/cm); 220 nM in assay [3] (MDA-MB-231, read-out: concentration required to reach complete arrest of cell proliferation (50% inhibition), Doxorubicin + TTFields 1.75 V/cm).

Take `CC(=O)O[C@H]1C(=O)[C@@]2(C)[C@H]([C@H](OC(=O)c3ccccc3)[C@]3(O)C[C@H](OC(=O)[C@H](O)[C@@H](NC(=O)c4ccccc4)c4ccccc4)C(C)=C1C3(C)C)[C@]1(OC(C)=O)CO[C@@H]1C[C@@H]2O` [Paclitaxel]: the “effect on cell proliferation rate, combination versus drug alone” value in assay [1] (Paclitaxel + TTFields 0.625 V/cm, all concentrations) is listed as “same effect on cell proliferation rate as Paclitaxel alone”; in assay [1] (Paclitaxel + TTFields 1.25 and 1.75 V/cm), “statistically significant (ANOVA, P<0.05) additional decrease in cell proliferation rate”. The entries for the “Combination index CI40” value in assay [1] (Paclitaxel + TTFields 1.25 V/cm) and in assay [1] (Paclitaxel + TTFields 1.75 V/cm) were 0.97 and 0.86, respectively. For the same compound, the “cell proliferation rate (% of control)” value in assay [1] (Paclitaxel alone, concentrations above 100 nM, 24 h) is approximately 50%. The “effect of combined treatment on cell number” value in assay [2] (12.5 nM Paclitaxel + 1.75 V/cm TTFields, 24 hours and 72 hours) was “induction of cell death already during the first 24 hours”. Further, the “cell proliferation after end of 24 hour treatment” value in assay [2] (12.5 nM Paclitaxel alone for 24 hours, then normal conditions) is on record as “complete recovery of cell proliferation rate”. For the same compound, in assay [2] (12.5 nM Paclitaxel alone, 24 hours), the “reduction in proliferation rate and cell number at end of treatment, lower than control” value was “approx. 27±3%”. The “cell proliferation during 72 hour treatment” value in assay [2] (12.5 nM Paclitaxel alone, 72 hours) is on record as “proliferation completely stops during second day of treatment”.
